# Experimental data reported in PubChem BioAssay AID1347120 (National Center for Advancing Translational Sciences (NCATS), 2019).
# In all, about 390,000 compounds went through this assay and about 930 (0.24%) were called active. The shares of active, inactive and inconclusive entries below differ from those in the screen. Calls come from the whole dose curve; as a rule, active = well fitted activation curve with a large enough effect; inconclusive = small, poorly fitted or top-dose-only effect; inactive = no such curve, though single readings can be large or run the other way. Potencies beside an inconclusive call are fits to weak or partial responses and may not hold up.
# Assay: qHTS for Suppressors of FUS Proteinopathy: Primary screen using FUS-linked yeast assay; note: nearly all actives have a fitted effect of over 55% in size;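 for growth rescue (activation): plate controls were DMSO vehicle for no effect and reference control for full effect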
# Conditions: S. cerevisiae FUS-expressing, OD600, 24 h; Potency: growth rescue; growth rescue (activation): at 76.6 µM (top of the series)
# Outline: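 Compound concentration series was pinned onto galactose-induced FUS-expressing yeast seeded at OD 0.005. Plates sat 24hr at 30C; absorbance at 600 nm gave growth. DMSO served as background control.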
# Potency is the fitted concentration of half-maximal effect; tags give direction and shape of the fitted curve.
SMILES,Potency,growth rescue (activation)
Cc1ccc(N2CCN(C(=O)c3cnn(-c4ccc(F)cc4F)c3C3CCN(C(=O)OC(C)(C)C)CC3)CC2)c(C)c1,"inconclusive: 25.1 µM [activator, partial curve, poor fit]",
Cc1c(C(=O)NCc2cccc(C(F)(F)F)c2)sc(=O)n1Cc1ccc(S(=O)(=O)N(C)C)cc1,"inconclusive: 35.5 µM [activator, partial curve, poor fit]",
Cc1ccc2nnc(Cl)n2n1,"inconclusive: 0.891 µM [activator, partial curve, poor fit]",
CC(=O)c1cccc(NC(=O)Nc2nnc(N3CCCC3)s2)c1,,inactive: -17.6%
c1ccc2c(CCNc3ncnc4nc[nH]c34)cccc2c1,,inactive: 7.12%
Cc1ccccc1NC(=O)Cc1nc(COC(=O)c2ccc(Cl)c(S(N)(=O)=O)c2)cs1,,inactive: 38.1%
Cc1cccc(CNC(=O)c2sc(=O)n(Cc3c(C)cccc3C)c2C)c1,"inconclusive: 28.2 µM [activator, single point]",
CC(Nc1cc(N2CCN(C(=O)C(C)(C)C)CC2)ccc1[N+](=O)[O-])c1ccccc1 (stereo not given),"inconclusive: 50.1 µM [activator, single point]",
CC(=O)Nc1ccc(/C=N\NC(=O)c2cccc(S(=O)(=O)N(C)C)c2)cc1,,inactive: -0.305%
CC[C@@H](C)[C@H](CNC)NC[C@@H](Cc1cccc2ccccc12)NCCc1cccc(C(F)(F)F)c1,"inconclusive: 31.6 µM [activator, partial curve, poor fit]",
COc1ccc(NC(=O)c2c(C)oc3ccc(O)c(CN4CCN(Cc5ccccc5)CC4)c23)cc1Cl,"inconclusive: 28.2 µM [activator, single point]",
COc1ccc(C2=Nc3ccccc3N(C(=O)c3ccc4ncccc4c3)C2C(=O)NC(C)(C)C)cc1 (stereo not given),"inconclusive: 31.6 µM [activator, single point]",
CCOC(=O)C1=C(CSc2nc3c(cc2C#N)CN(C)CC3)OC(N)=C(C#N)C1c1ccc(F)cc1 (stereo not given),"inconclusive: 17.8 µM [activator, partial curve]",
O=C(CSc1nnc(-c2ccccc2)n1-c1ccc(Cl)cc1)c1ccc(Cl)cc1,,inactive: 30%
CC(Cc1ccccc1)NC(=O)CSc1nc2nc3c(cc2c(=O)n1-c1ccccc1)COC(C)(C)C3 (stereo not given),"inconclusive: 8.91 µM [activator, partial curve]",
CCOc1ccc(NS(=O)(=O)c2cc(NC(=O)c3cccc(C)c3)ccc2Cl)cc1,"inconclusive: 5.62 µM [activator, partial curve, poor fit]",
O=C(NCCc1ccccc1)C1CCN(Cc2cc3ccccc3n2Cc2cccc(Cl)c2)CC1,"inconclusive: 20 µM [activator, partial curve]",
COc1ccc(-c2ccc3c(c2)[C@@H]2C[C@H](N(C)C(=O)Nc4ccccc4)[C@H]([C@H](C)O)C(=O)N2CC3)cc1,"inconclusive: 31.6 µM [activator, partial curve]",
Cc1c(NC(=O)C(C)OC(=O)c2c3c(nc4ccccc24)CCC3)c(=O)n(-c2ccccc2)n1C (stereo not given),active: 22.4 µM,
CC1CCN(S(=O)(=O)c2ccc3c(c2)c(=O)c(C(=O)NC(C)c2ccccc2)cn3C)CC1 (stereo not given),"inconclusive: 50.1 µM [activator, single point]",

SMILES,Potency,growth rescue (activation)
Cc1ccc([C@H]2N[C@]3(CCCN(Cc4ccc(C(F)(F)F)cc4)C3=O)[C@H]3C(=O)N(Cc4ccccc4)C(=O)[C@@H]23)cc1,"inconclusive: 22.4 µM [activator, single point]",
O=C(COc1ccccc1)N=C1SC2CS(=O)(=O)CC2N1c1ccc(F)cc1 (stereo not given),"inconclusive: 50.1 µM [activator, single point]",
CCOC(=O)c1cnn(CCOC(=O)c2cccc(F)c2)c1NC(=O)c1cccc(F)c1,"inconclusive: 22.4 µM [activator, partial curve, poor fit]",
CCCCOc1cccc(C(=O)Nc2cc(NC(=O)c3ccco3)ccc2OC)c1,"inconclusive: 31.6 µM [activator, single point]",
Cc1ccc(NC(=O)COC(=O)c2c(C)nn(-c3ccccc3)c2C)cc1,"inconclusive: 28.2 µM [activator, single point]",
Cc1ccc(Cl)cc1N1CCN(C(=O)c2c(C)oc3ncnc(N4CCCCC4)c23)CC1,"inconclusive: 22.4 µM [activator, partial curve, poor fit]",
CCCCCOc1ccc(C(=O)CCC(=O)Nc2ccc(NC(C)=O)cc2)cc1,,inactive: -30%
O=C(NCc1ccc2c(c1)OCO2)c1c[nH]c2ccc(S(=O)(=O)N3CCOCC3)cc2c1=O,,inactive: 26.8%
Cc1ccc(-c2nnn(CC(=O)N(c3ccccc3F)C(C(=O)NCC3CCCO3)c3c[nH]c4ccccc34)n2)cc1 (stereo not given),"inconclusive: 25.1 µM [activator, single point]",
CC(c1ccccc1)n1cc2c(c1-c1ccccc1Br)c(=O)n(C)c(=O)n2C (stereo not given),"inconclusive: 35.5 µM [activator, single point]",
COc1ccc(CCNC(=O)c2cnn(-c3cccc(C)c3)c2C2CCN(C(=O)OC(C)(C)C)CC2)cc1OC,"inconclusive: 31.6 µM [activator, single point]",
COc1cccc(C2c3[nH]c4ccccc4c3C[C@H]3C(=O)N(c4ccccc4C(=O)N4CCCC4C(=O)O)C(=O)N23)c1 (stereo not given in full),"inconclusive: 25.1 µM [activator, partial curve]",
CCCCc1ccc(NC(=O)CC(C)(C)C)cc1,,inactive: 13.3%
C=CCNC(=O)c1oc2ccc(S(=O)(=O)N(CC)CC)cc2c1C,"inconclusive: 50.1 µM [activator, single point]",
CCc1ccc([C@H]2C(C(=O)O)=C[C@@H](CC3CCCC3)N2S(=O)(=O)c2ccc(C)cc2)cc1,"inconclusive: 50.1 µM [activator, single point]",
Cc1cc(-c2[nH]nc3c2C(c2ccc(Cl)cc2)C(C#N)=C(N)O3)c(C)s1 (stereo not given),"inconclusive: 28.2 µM [activator, partial curve, poor fit]",
Cc1nc(SCc2nc3ccccc3[nH]2)c2oc3cc(Br)ccc3c2n1,"inconclusive: 35.5 µM [activator, single point]",
COc1ccc2c(c1)CC(C(=O)NCCCN1CCN(c3cccc(Cl)c3)CC1)CO2 (stereo not given),,inactive: 12.2%
CCOC(=O)c1sc2ccccc2c1S(=O)(=O)N1CCN(c2cccc(C)c2)C(C)C1 (stereo not given),,inactive: 19.3%
O=C(N/N=C/c1sc(N2CCOCC2)nc1-c1ccccc1)c1cccc(S(=O)(=O)N2CCCC2)c1,"inconclusive: 17.8 µM [activator, partial curve, poor fit]",

SMILES,Potency,growth rescue (activation)
Cc1ccc(/C=C\c2nccc3c2[nH]c2ccccc23)cc1,"inconclusive: 11.2 µM [activator, single point]",
COc1ccc(S(=O)(=O)NCC2CCCN(Cc3ccc(OC)cc3F)C2)cc1 (stereo not given),,inactive: -6.24%
O=C1S/C(=C\c2ccc(N3CCOCC3)o2)C(=O)N1Cc1ccc(F)cc1,,inactive: 27.1%
CCOc1ccc(Nc2c(S(=O)(=O)c3ccc(Cl)cc3)cnc3ccc(OCC)cc23)cc1,"inconclusive: 44.7 µM [activator, partial curve, poor fit]",
COC(=O)[C@@]12C[C@@H](CC(=O)N3CCCC3)C(=O)N(Cc3cccc4ccccc34)C1=CCC(C)(C)C2,"inconclusive: 20 µM [activator, single point]",
O=S(=O)(Nc1nc2ccccc2nc1OCC(F)(F)F)c1cccs1,,inactive: -0.966%
Cc1ccc(C(NC(=O)C(C)C)c2cc([N+](=O)[O-])c3cccnc3c2O)cc1 (stereo not given),"inconclusive: 11.2 µM [activator, partial curve]",
COc1ccc(Cl)cc1NC(=O)CN1C(=O)C(C)(C)c2cc(S(=O)(=O)N3CCCCC3)ccc21,"inconclusive: 50.1 µM [activator, single point]",
CN1C(=O)C(C)(C)c2cc(S(=O)(=O)N3CCN(c4cccc(Cl)c4)CC3)ccc21,"inconclusive: 22.4 µM [activator, single point]",
NC(=O)Nc1ccc(Oc2ncc(C(F)(F)F)cc2Cl)cc1,"inconclusive: 50.1 µM [activator, single point]",
COc1c(O)ccc2cnn(-c3ccccc3C)c(=O)c12,"inconclusive: 3.16 µM [activator, full curve, poor fit]",
CCN1C[C@@H]2[C@@H]3C(=O)N(C)C(=O)[C@@H]3[C@](Cc3ccccc3)(C1=O)N2C(=O)c1ccc(F)cc1,,inactive: -9.07%
c1ccc(Cn2c(SCc3nc4ccccc4s3)nnc2-c2ccco2)cc1,"inconclusive: 35.5 µM [activator, single point]",
Cn1c(=O)c2cc(NC(=O)CCc3cccnc3)ccc2n1Cc1cccc(C(F)(F)F)c1,,inactive: 1.38%
COc1ccccc1N(C)S(=O)(=O)c1ccc(C(=O)NCC2CCCCC2)cc1,"inconclusive: 50.1 µM [activator, single point]",
COc1ccc(/C=C/C(=O)NCCCn2ccnc2)cc1,"inconclusive: 11.2 µM [activator, single point]",
CCOC(CNC(=O)C(=O)Nc1cc2c3c(c1)CCN3C(=O)CC2)OCC,,inconclusive: -36.1% [activator]
Cc1ccc(NC(=O)c2cccs2)cc1,active: 28.2 µM,
COc1ccc(CNC(=O)C[C@H]2C[C@H](C(=O)N3CCOCC3)[C@@]3(C)c4[nH]c5cc(-c6ccco6)ccc5c4CCN3C2=O)cc1OC,"inconclusive: 28.2 µM [activator, single point]",
Nc1nn(-c2ccccc2)c(N)c1N=Nc1cccc(F)c1,,inactive: -9.54%
